In assay [1] the target is T1, HLA-A*02:01 on T2 cells alone (no peptide added) (human).
T1 construct: TAP-deficient T2 cells without pulsed peptide; negative control target, and the HLA molecule whose stabilisation by peptides is read in the T2 stabilization assay; also called HLA-A*02 molecule; HLA-A2 molecule
As to the kind of experiment: flow cytometry, phage on T2 cells. For orientation: Flow cytometry measures light scatter and fluorescence of single cells or particles in a stream.

For assay [2], the target named is T1, HLA-A*02:01 on T2 cells alone (no …). Description: flow cytometry, phage on T2 cells, no peptide.
Assay [3] has as its target T2, Foxp3-7 peptide/HLA-A*02:01 complex on the cell surface (human).
T2 construct: also called Foxp3-7/HLA-A2 complex
As to the kind of experiment: flow cytometry, phage on peptide-loaded T2 cells.

The target of assay [4] is T3, 017-mut1 peptide (…)/HLA-A*02:01 complex on T2 cells (human).
T3 construct: Alanine mutant of Foxp3-7 at position 1, pulsed onto T2 cells; also called EXT017-mut1
Description: flow cytometry, phage on peptide-loaded T2 cells.

Assay [5] has as its target T4, 017-mut2 peptide (…)/HLA-A*02:01 complex on T2 cells (human).
T4 construct: Alanine mutant at position 2, the anchor position; the peptide may load poorly onto HLA-A2; also called EXT017-mut2
Description: flow cytometry, phage on peptide-loaded T2 cells.

Assay [6] has as its target T5, 017-mut3 peptide (…)/HLA-A*02:01 complex on T2 cells (human).
T5 construct: Alanine mutant at position 3
Description: flow cytometry, phage on peptide-loaded T2 cells.

Assay [7] concerns the target T6, 017-mut4 peptide (…)/HLA-A*02:01 complex on T2 cells (human).
T6 construct: Alanine mutant at position 4
As to the kind of experiment: flow cytometry, phage on peptide-loaded T2 cells.

Assay [8] has as its target T7, 017-mut5 peptide (…)/HLA-A*02:01 complex on T2 cells (human).
T7 construct: Alanine mutant at position 5
Description: flow cytometry, phage on peptide-loaded T2 cells.

The target in assay [9] is T8, 017-mut7 peptide (…)/HLA-A*02:01 complex on T2 cells (human).
T8 construct: Alanine mutant at position 7
As to the kind of experiment: flow cytometry, phage on peptide-loaded T2 cells.

For assay [10], the target named is T9, 017-mut8 peptide (…)/HLA-A*02:01 complex on T2 cells (human).
T9 construct: Alanine mutant at position 8; also called TLI-A8
Description: flow cytometry, phage on peptide-loaded T2 cells.

The target of assay [11] is T10, R3 (RHAMM-R3) peptide/HLA-A*02:01 complex on T2 cells (human).
T10 construct: Control target of the phage staining of T2 cells; also called T2 cells pulsed with R3 peptide; RHAMM 3 (R3)
As to the kind of experiment: flow cytometry, phage on T2 + R3 peptide; secondary only 123, unstained 99.8.

For assay [12], the target named is T1, HLA-A*02:01 on T2 cells alone (no …). Description: flow cytometry, phage on T2 without peptide; secondary only 121, unstained 106.
Assay [13] has the same target. As to the kind of experiment: flow cytometry, phage on T2 without peptide; secondary only 100, unstained 99.5.
For assay [14], the target named is T2, Foxp3-7 peptide/HLA-A*02:01 complex on …. As to the kind of experiment: flow cytometry, phage on T2 + Foxp3-7 peptide; secondary only 133, unstained 103.
Assay [15] shares this target. As to the kind of experiment: flow cytometry, phage on T2 + Foxp3-7 peptide; secondary only 116, unstained 93.8.
The next assay concerns the target T11, T2+EW (Homo sapiens, UniProt A*02:01).
T11 construct: on the surface of T2 cells; irrelevant control peptide; also called EW peptide/HLA-A*02:01 complex on T2 cells; T2 pulsed with EW peptide
Description: flow cytometry, phage on T2 + EW peptide; secondary only 113, unstained 94.7.

For assay [16], the target named is T2, Foxp3-7 peptide/HLA-A*02:01 complex on …. As to the kind of experiment: flow cytometry, phage on T2 + Foxp3-7 peptide; secondary only 104, unstained 81.7.
Assay [17] concerns the target T10, R3 (RHAMM-R3) peptide/HLA-A*02:01 …. Description: flow cytometry, phage on T2 + R3 peptide (as the table names the samples); secondary only 109, unstained 80.9.

B1: EXT017-18 scFv phage clone (scFv)
scFv: QAVLTQPPSASGTRGQRVTIS[sequence of about 80 residues omitted]VFGTGTKVTVLGSRGGGGSGGGGSGGGGSLEMAEVQLVQSGAEVKKPGTSVKVSCKASGYTFSNYYIHWVRQAPGQGLEWMGAINPSVGTTTYAQNFQGRVTMTSDTSTSTVYMELSSLTSEDTAVYYCARDWWGQMMYDGWGQGTLVTVSSTSGQAGQHHHHHHGAYPYDVPDYAS
notes: full-length scFv with His+HA tags; also called EXT017-18 phage; phage clone #18
In the case of B1, in assay [1], the binding result was “no binding”. In addition, the MFI in assay [2] is 90.6; in [3] it was 25900; in [4], 143; in [5] it was 97.3; in assay [6] it was 5150; in assay [7], 99.1. The MFI in [8] stood at 95.8; in [9] it was 95.4; in assay [10], 6600. Further, the “Median:FITC-A” value in [11] turned out to be 146; in assay [12], 148; in [13], 139; in [14] it was 1540; in assay [15], 761; with T2+EW, 139. In addition, the “Median:FITC-A” value was 2790 in assay [16] and 117 in assay [17].

For the origin of these results see patent US20190284262A1 (Memorial Sloan Kettering, published 2019).
